This is an account of results in publication PMC4336329 (PLoS ONE, 2015).

In all, about 310,000 compounds went through this assay and about 2,200 (0.71%) showed an effect of 50% or more. The effect is printed as a negative number. This is one part of the list.

The target in the test is human ether-à-go-go-related gene (hERG) potassium channel (human, UniProt Q12809). The experiment in a line: primary screen, population patch clamp on CHO cells stably expressing hERG.
human ether-à-go-go-related gene (hERG) potassium channel, sequence (Q12809 whole entry, looked up): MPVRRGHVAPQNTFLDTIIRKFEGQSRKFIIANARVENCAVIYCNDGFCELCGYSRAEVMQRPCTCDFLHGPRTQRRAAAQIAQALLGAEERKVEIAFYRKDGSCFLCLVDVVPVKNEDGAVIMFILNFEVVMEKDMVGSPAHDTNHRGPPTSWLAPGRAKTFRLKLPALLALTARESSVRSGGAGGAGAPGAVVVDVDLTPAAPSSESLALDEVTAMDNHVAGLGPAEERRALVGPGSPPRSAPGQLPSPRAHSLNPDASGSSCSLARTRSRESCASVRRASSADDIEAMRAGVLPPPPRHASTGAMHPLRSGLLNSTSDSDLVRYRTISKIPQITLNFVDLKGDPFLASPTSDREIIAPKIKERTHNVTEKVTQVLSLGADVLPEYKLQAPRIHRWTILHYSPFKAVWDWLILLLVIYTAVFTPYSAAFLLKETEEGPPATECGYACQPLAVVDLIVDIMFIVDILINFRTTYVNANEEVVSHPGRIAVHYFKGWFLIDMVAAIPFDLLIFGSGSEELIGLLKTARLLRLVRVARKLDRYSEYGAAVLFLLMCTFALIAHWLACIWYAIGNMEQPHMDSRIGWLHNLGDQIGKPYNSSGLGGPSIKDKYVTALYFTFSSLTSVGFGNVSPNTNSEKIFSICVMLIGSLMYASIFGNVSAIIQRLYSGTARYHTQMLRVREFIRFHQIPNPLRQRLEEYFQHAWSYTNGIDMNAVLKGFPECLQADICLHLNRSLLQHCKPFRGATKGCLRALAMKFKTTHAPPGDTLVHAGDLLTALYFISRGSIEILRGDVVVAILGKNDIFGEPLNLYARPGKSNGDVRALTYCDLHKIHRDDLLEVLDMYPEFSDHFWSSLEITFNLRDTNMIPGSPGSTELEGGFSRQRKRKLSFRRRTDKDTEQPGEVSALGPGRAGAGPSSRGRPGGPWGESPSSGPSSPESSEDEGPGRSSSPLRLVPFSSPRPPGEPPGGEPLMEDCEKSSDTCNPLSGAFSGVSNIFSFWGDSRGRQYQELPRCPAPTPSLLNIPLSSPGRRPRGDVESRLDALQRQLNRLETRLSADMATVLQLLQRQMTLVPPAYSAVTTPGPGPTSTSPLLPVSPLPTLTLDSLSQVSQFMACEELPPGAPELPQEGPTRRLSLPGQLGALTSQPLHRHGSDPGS
With `Cc1ccc(CNC(=O)c2ccc3c(=O)[nH]c4c(C(=O)NCC5CCCO5)sc(=S)n4c3c2)cc1` (stereo not shown), the “hERG current change (%, negative = inhibition) at 1uM” value was -6.3%.
For the compound `COc1cccc(C(=O)NC(C)C(c2cccs2)N2CCN(C)CC2)c1` (stereo not shown), the “hERG current change (%, negative = inhibition) at 1uM” value is recorded as -1.59%.
Regarding `O=C(Cn1cc(C(F)(F)F)ccc1=O)N/N=C/c1cccc(Cl)c1Cl`, the “hERG current change (%, negative = inhibition) at 1uM” value worked out at 4.24%.
Next, `C=CCN(CC=C)c1nc2ccccc2nc1C(C#N)C(=O)OCCOC` (stereo not shown): 8.8%.
Next, `COc1ccc(NC(=S)N2CCC(c3ccc(C)cc3)C2)cc1` (stereo not shown): 6.63%.
The same measure for `C=CCn1c(SCC(=O)NC(=O)NCC(C)C)nnc1C1CCCCC1`: 13.9%; for `CCOc1ccccc1NC(=O)NCc1ccccc1F`: 15.4%; for `Clc1cccc(-c2nnc(-c3ccno3)o2)c1`: 13.3%.
With `CCC(C)(C)NC(=O)C(c1ccc(OC)cc1)N(Cc1ccco1)C(=O)CCC(=O)Nc1cc(C)on1` (stereo not shown), the “hERG current change (%, negative = inhibition) at 1uM” value is listed as 4.86%.
Next, `Cc1cc(NC(=O)CC23CC4CC(C2)CC(CC(=O)Nc2cc(C)on2)(C4)C3)no1`: 12.6%; `CCOC(=O)N1CCC(NC(=O)c2ccc(NC(=O)C3CCCO3)cc2)CC1` (stereo not shown): 0.967%.
`COc1cccc(N2C(=O)C3C(C2=O)C3(c2ccccc2)c2ccccc2)c1` (stereo not shown): the “hERG current change (%, negative = inhibition) at 1uM” value is 4.91%.
Next, `O=C(O)C1CCN(S(=O)(=O)c2cccc3nsnc23)CC1`: 8.01%; `CC(C)=NOc1nc(N2CCOCC2)nc(N2CCOCC2)n1`: 15%; `COc1ccc(Nc2nc(Cl)c(C=O)s2)cc1`: 5.62%.
With `CC(NC(=O)Cc1ccccc1)c1ccccc1` (stereo not shown), the “hERG current change (%, negative = inhibition) at 1uM” value is 6.12%.
Next, `CC(=O)c1cccc(Nc2c([N+](=O)[O-])c(=O)oc3ccccc23)c1`: 13.5%.
With `O=C(NN=C1CCCCC1)c1ccccc1-n1cccc1`, the “hERG current change (%, negative = inhibition) at 1uM” value came out at 5.6%.
With `Cn1c(=O)c2c(nc(CN3CCN(c4ccccc4F)CC3)n2CCN2CCOCC2)n(C)c1=O`, the “hERG current change (%, negative = inhibition) at 1uM” value was -5.62%.
The same measure for `CCOc1cccc(-c2nnc(SCC(=O)Nc3ccc(OC)c(OC)c3)n2N)c1`: -7.23%; for `O=C(CSc1nnc(-c2cccs2)o1)NCc1ccco1`: 8.17%.
With `CC1(C(=O)OCC(=O)Nc2nc(-c3ccc(F)c(F)c3)cs2)CC1(Cl)Cl` (stereo not shown), the “hERG current change (%, negative = inhibition) at 1uM” value came to 10.8%.
Next, `COc1ccc(CCNC(=O)CN(c2ccc(OC)cc2)S(C)(=O)=O)cc1`: 12.9%; `COc1ccc(/C=C(/NC(=O)c2ccco2)C(=O)N2CCCCCC2)cc1OC`: 15.2%.
On to `CCn1cc(/C=C(\NC(=O)c2ccc(OC)cc2)C(=O)N2CCOCC2)c2ccccc21`, for which the “hERG current change (%, negative = inhibition) at 1uM” value worked out at 13.3%.
